In paper PMC4336329 (PLoS ONE, 2015):
Screen size: about 310,000 compounds; about 14,000 (4.5%) showed an effect of 50% or more. The effect is printed as a negative number. The list shows a part of the results.

What follows are compounds tested against human ether-à-go-go-related gene (hERG) potassium channel (human, UniProt Q12809) (assay: primary screen, population patch clamp on CHO cells stably expressing hERG).
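Also: peak tail current of the secondary pulse compared with the same well before compound.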

Sequence of human ether-à-go-go-related gene (hERG) potassium channel (Q12809 whole entry, looked up): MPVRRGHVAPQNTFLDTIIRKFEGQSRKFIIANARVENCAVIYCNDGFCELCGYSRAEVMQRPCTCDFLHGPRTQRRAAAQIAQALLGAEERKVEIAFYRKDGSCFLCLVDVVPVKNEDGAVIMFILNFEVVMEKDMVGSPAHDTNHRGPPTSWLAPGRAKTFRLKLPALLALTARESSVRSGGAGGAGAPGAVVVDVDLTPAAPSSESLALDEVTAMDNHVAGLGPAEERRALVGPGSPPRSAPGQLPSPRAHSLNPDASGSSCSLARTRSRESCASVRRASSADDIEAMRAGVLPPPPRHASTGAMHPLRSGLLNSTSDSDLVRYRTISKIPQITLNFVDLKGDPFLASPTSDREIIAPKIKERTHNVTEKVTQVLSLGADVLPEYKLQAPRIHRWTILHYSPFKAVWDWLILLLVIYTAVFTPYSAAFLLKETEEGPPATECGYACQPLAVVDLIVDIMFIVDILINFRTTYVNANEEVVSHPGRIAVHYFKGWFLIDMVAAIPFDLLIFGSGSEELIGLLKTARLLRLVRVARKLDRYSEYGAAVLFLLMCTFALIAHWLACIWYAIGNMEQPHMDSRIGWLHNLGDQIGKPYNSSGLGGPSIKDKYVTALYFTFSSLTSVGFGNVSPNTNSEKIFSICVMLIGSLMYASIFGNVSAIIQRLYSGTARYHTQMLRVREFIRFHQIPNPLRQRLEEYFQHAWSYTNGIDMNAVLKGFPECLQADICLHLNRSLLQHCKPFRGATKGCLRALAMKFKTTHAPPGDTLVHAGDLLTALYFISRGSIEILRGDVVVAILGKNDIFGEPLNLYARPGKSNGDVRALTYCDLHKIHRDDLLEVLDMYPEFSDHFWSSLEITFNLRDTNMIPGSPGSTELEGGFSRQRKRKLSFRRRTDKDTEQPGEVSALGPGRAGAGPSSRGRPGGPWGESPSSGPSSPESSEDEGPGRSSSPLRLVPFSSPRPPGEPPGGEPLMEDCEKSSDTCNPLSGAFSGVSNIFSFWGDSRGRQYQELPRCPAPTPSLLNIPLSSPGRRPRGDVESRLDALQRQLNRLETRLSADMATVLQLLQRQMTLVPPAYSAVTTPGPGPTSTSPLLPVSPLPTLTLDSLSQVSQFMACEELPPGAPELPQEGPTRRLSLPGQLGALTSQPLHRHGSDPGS

SMILES	hERG current change (%, negative = inhibition) at 10uM [%]
COc1cc(CC(=O)NCC(C)(C)N2CCOCC2)cc(OC)c1OC	20
O=S(=O)(Nc1ccc(Cl)cc1)c1ccc(N2CCOCC2)c(NC(=S)NCCN2CCOCC2)c1	-1.66
COc1ccc(NC(=O)CN2CCN(C(=O)C3CCCO3)CC2)c(OC)c1 (centres unmarked)	-33
CN(C)S(=O)(=O)c1ccc(Cl)c(NC(=O)CN2CCN(Cc3ccc4c(c3)OCO4)CC2)c1	-64.6
O=C(CC1NCCc2ccccc21)Nc1ccccc1 (centres unmarked)	0.246
CN1C(=O)c2cccc3c(S(N)(=O)=O)ccc1c23	2.25
N#CCSc1nnc(Cc2cccc3ccccc23)n1C1CCCCC1	-14.9
COc1ccc(NC(=O)CN(C)C(=O)CCCN2C(=O)c3cccc4cccc(c34)C2=O)cc1	-42.7
COc1ccc(NC(=O)c2ccc([N+](=O)[O-])s2)c([N+](=O)[O-])c1	-2.64
CCc1ccc(-c2nc(CN3CCC(C(=O)NCc4ccc(F)cc4)CC3)c(C)o2)cc1	-50.5
CCOCc1cnc(C)nc1NCC(=O)c1c(C)[nH]c2cc(C)ccc12	5.35
S=C(NCc1cccs1)Nc1cccc2ccccc12	7.98
Cc1[nH+]csc1CCOC(=O)C1C2CC3CC(C2)CC1C3.[Cl-] (centres unmarked)	-3.76
CCOC(=O)c1cc2c(C)n(-c3ccc(N(C)C)cc3)c(C)c2cc(C(=O)OCC)c1=O	6.08
COC(=O)Cn1c(CCS(=O)(=O)c2ccc(Cl)cc2)nc2ccccc21	-9.61
CCn1cc(C(=O)NCCCN2CCCC(C)C2)c(=O)c2cc(S(=O)(=O)N3CCOCC3)ccc21 (centres unmarked)	14.6
Cc1ccc(NC(=O)Nc2ccno2)cc1	17.8
CCCSc1nc2sc3c(c2c(=O)[nH]1)CC(C)CC3 (centres unmarked)	27.3
COC(=O)c1sc(N(C)C)c(C#N)c1-c1ccccc1	11.7
O=C(CCc1ccc(S(=O)(=O)NCc2ccccc2)cc1)NCc1ccc2c(c1)OCO2	-6.93
CCCCC(=O)Nc1ccccc1Oc1ccccc1	19.4
COc1ccc(OC)c(/C(O)=C/C(=O)C(=O)Nc2ccccc2OC)c1	6.16
CN(C(=O)c1ccc(NC(=O)Cc2cccc(NC(=O)C3CCN(C(=O)C4CC4)CC3)c2)cc1)C1CCCC1	10.8

SMILES	hERG current change (%, negative = inhibition) at 10uM [%]
CCN(CC(=O)NCc1ccc(Cl)cc1)C(=O)CSc1ccccc1F	-19.3
COc1cccc(NC(=O)C2CCCC2)c1	13.2
Cc1nn(Cc2ccccc2Cl)c(C)c1NC(=O)c1noc(C(C)C)c1[N+](=O)[O-]	-5.07
CCn1c(C)nnc1SCC(=O)Nc1ccc(C(C)=O)cc1	11.5
COc1ccccc1/C=C/C=N/NC(=O)c1cc(-c2ccc(C)o2)[nH]n1	-5.24
O=C(CCN1CCOCC1)NNC(=O)Nc1cccc([N+](=O)[O-])c1	15.2
COc1ccc(CCNC(=O)C2CCN(S(=O)(=O)c3ccc(C)cc3)CC2)cc1OC	2.66
COc1cc(-n2c(=O)c3ccccc3n(Cc3cccc(C)c3)c2=O)cc(OC)c1OC	23.3
CN1CCN(S(=O)(=O)c2cccc(C(=O)Nc3cc(C(F)(F)F)ccc3N3CCCC3)c2)CC1	-1.41
Cn1nc(C(=O)OCC(=O)NC2CCS(=O)(=O)C2)c2ccccc2c1=O (centres unmarked)	12.8
COc1ccc(CCN(C)C(=O)c2cccc(S(=O)(=O)NCc3ccccc3)c2)cc1OC	-3.65
O=C(Nc1ccc(NC(=S)NC(=O)C(c2ccccc2)c2ccccc2)cc1)c1ccccc1	3.58
CSc1ncc(C(=O)Nc2ccc(C)cc2C)c(C)n1	24.4
Cc1nnc2c(NCCC(C)C)nc3ccccc3n12	11.7
CCOc1cc(NC(=O)c2ccccc2OC)c(OCC)cc1NC(=O)c1ccccc1	21.5
O=c1[nH]c(=O)n(Cc2ccco2)c2c1C(C(F)(F)F)(C(F)(F)F)N=C(CCc1ccccc1)N2	7.87
CCN1CCN(C(c2cccc(OC)c2OC)c2nnnn2Cc2ccco2)CC1.Cl (centres unmarked)	14
Cc1cc(NC(=O)COC(=O)c2cc(S(=O)(=O)N(C)C)ccc2Cl)no1	13.3
CC(C)(C)NCc1ccccc1OCc1cccs1.Cl	6.17
CC(C)(C)OC(=O)N1CCC(C(=O)N[C@@H](Cc2ccccc2)C(=O)O)(c2ccccc2)CC1	-0.216
CCOC(=O)Nc1ccc2c(c1)N(C(=O)CCN1CCN(C)CC1)c1ccccc1S2.Cl	-15.2
CCC1(C)Cc2ccccc2-c2nc(NCCCO)n(C)c(=O)c21 (centres unmarked)	-6.75
Clc1ccccc1-c1ncc2ccccn12.O=C(O)C(=O)O	0.632

SMILES	hERG current change (%, negative = inhibition) at 10uM [%]
COc1ccccc1/C=C1\NC(=S)N(CC2CCCO2)C1=O (centres unmarked)	-18.3
O=C(CCc1nc(-c2ccccc2F)no1)NCc1ccco1	-8.57
Cc1ccc2nc(N3CCCCC3)c(C=O)c(=O)n2c1	4.68
Cc1ccc(C)c(OCC(=O)O/N=C(\N)c2cccc([N+](=O)[O-])c2)c1	-0.423
CCOC(=O)c1ccc(NCn2c(=O)oc3ccccc32)cc1	-14.5
COc1ccc(NC(=O)CCc2nnc3ccc(N4CCC(C)CC4)nn23)cc1	-22.9
Cc1cc(C(=O)OCC(=O)Nc2nccs2)c2ccccc2n1	1.22
O=C(Oc1ccccc1)c1ccc(NC(=O)c2ccco2)cc1	9.26
CCOC(=O)C1=C(C)NC(SCC(=O)O)=C(C#N)C1c1ccco1 (centres unmarked)	-3.38
CCOC(=O)C1CCCN(C/C(O)=C(\C#N)c2nc(-c3ccccc3)cs2)C1 (centres unmarked)	2.57
O=C(CCc1nnc(Cc2c[nH]c3ccccc23)o1)NC1CCCC1	-3.41
O=c1c2cccnc2nc2n1CCCCC2	58.1
CC(NC(=O)c1ccccc1F)c1ccccc1 (centres unmarked)	3.4
COc1ccccc1-c1ccc(/C=C2\C=CC(=O)O2)o1	5.42
CC(=O)NC(CCS(C)(=O)=O)C(=O)Nc1c(F)cccc1F (centres unmarked)	-1.59
Brc1cc(Br)c(Oc2cc(Br)c(Br)cc2Br)cc1Br	16.4
Cc1ccc(S(=O)(=O)Nc2c(C)cc(C)nc2Cl)cc1	2.77
O=C(NC1CCCCC1)C(c1cc2c(cc1[N+](=O)[O-])OCO2)N1CCCCC1 (centres unmarked)	-16.5
O=S(=O)(Nc1nc2ccccc2s1)c1ccc(Br)s1	-5.3
COc1ccccc1-n1c(CNC(=O)c2ccc(S(=O)(=O)N3CCOCC3)cc2)n[nH]c1=S	9.27
CCc1cc(=O)oc2cc(OC(=O)CN3C(=O)NC4(CCCC4)C3=O)ccc12	1.95
COc1ccc(NC(=O)Nc2sc(=S)n(C)c2C)cc1	4.52
CCc1nc(NCCO)c(C#N)c2c1CSC(C)(C)C2	19.8

SMILES	hERG current change (%, negative = inhibition) at 10uM [%]
CC/C(=N\NC(=O)c1cccnc1)c1ccc2c(c1)OCCO2	-41.5
CCCn1c(C(O)c2ccc(OCC)cc2)nc2ccccc21 (centres unmarked)	7.3
Nc1ccc(N2CCN(C(=O)c3ccco3)CC2)cc1	12.3
Cc1ccc(Oc2ncccc2/C=N/O)cc1	4.33
CC(=O)Nc1ccc(S(=O)(=O)Oc2ccccc2N2CCCCC2)cc1	-3.62
NC(N)=NN=C1CCC(c2ccccc2)CC1 (centres unmarked)	14.4
c1coc(CNc2ncnc3[nH]ncc23)c1	15.3
Cc1ccnc(NS(=O)(=O)c2ccccc2)c1	15.2
COc1cc(NC(=O)C2CSC3(C)CCC(=O)N23)c(OC)cc1Cl (centres unmarked)	-2.05
CN(CCNC(=O)c1ccc(CS(=O)(=O)c2ccc(Br)cc2)o1)CCc1ccccc1	-77.5
Cc1ccc(S(=O)(=O)CC(=O)Nc2ncc([N+](=O)[O-])s2)cc1	21.8
NC(=O)CC(NC(=O)Cc1cccc2ccccc12)c1ccc(NC2CCCCCC2)c([N+](=O)[O-])c1 (centres unmarked)	6.24
CCOC(=O)c1ccc(NS(=O)(=O)c2c(N)[nH]c(=O)[nH]c2=O)cc1	0.427
COC(=O)C1=CN(C)C=C(C(=O)OC)C1c1ccccc1Cl	6.5
COC(Cc1ccccc1N1CCCC1=O)OC	-2.48
CC(=O)Nc1ccc(C(=O)NCC(c2ccco2)N(C)C)cc1 (centres unmarked)	10.1
CC(=O)Nc1ccc(NC(=O)CNC(=O)c2sc3ccccc3c2Cl)cc1	-0.527
CCCCC(=O)Nc1ccc(C(=O)NNC(=S)NC(=O)c2ccco2)cc1	13.5
Cc1ccc(NC(=O)/C=C/c2ccco2)nc1	6.41
CCOc1ccc2c(=O)c(Oc3ccccc3OCC)coc2c1	-6.31
